# From the supplement of paper PMC8728848
# Some of the results follow.
# Legend:
# Test in all cases: glycan array binding signal (z-score within array); higher = stronger binding
# Details in all cases: glycan notation: IUPAC condensed, linker removed
# [1] = target: Fuc(a1-2)[GalNAc(b1-3)]Gal
# Procedure, shortened: (§1)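 Glycan array binding is given as a within-array Z-score, which can be read as non-binding when negative. The arrays, 3228 of them, came from the Consortium for Functional Glycomics database and were retained only where the protein sequence was available. Z-scores were averaged across arrays of the same protein sequence at different concentrations or buffers and across linkers.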
# Fuc(a1-3)GlcNAc = target: Fuc(a1-3)GlcNAc
# Procedure, shortened: as §1
# [2] = target: Fuc(a1-3)[Gal(b1-4)]Glc6S
# Procedure, shortened: as §1
# [3] = target: Fuc(a1-3)[Gal(b1-4)]GlcNAc
# Procedure, shortened: as §1
# [4] = target: Fuc(a1-3)[Gal(b1-4)]GlcNAc(b1-2)Man
# Procedure, shortened: as §1
# [5] = target: Fuc(a1-3)[Gal(b1-4)]GlcNAc(b1-2)Man(a1-3)[Fuc(a1-3)[Gal(b1-4)]GlcNAc(b1-2)Man(a1-6)]Man(b1-4)GlcNAc(b1-4)GlcNAc
# Procedure, shortened: as §1
# [6] = target: Fuc(a1-3)[Gal(b1-4)]GlcNAc(b1-2)Man(a1-3)[Fuc(a1-3)[Gal(b1-4)]GlcNAc(b1-2)Man(a1-6)]Man(b1-4)GlcNAc(b1-4)[Fuc(a1-6)]GlcNAc
# Procedure, shortened: as §1
# [7] = target: Fuc(a1-3)[Gal(b1-4)]GlcNAc(b1-3)Gal(b1-3)[Fuc(a1-4)]GlcNAc
# Procedure, shortened: as §1
# [8] = target: Fuc(a1-3)[Gal(b1-4)]GlcNAc(b1-3)Gal(b1-4)[Fuc(a1-3)]GlcNAc
# Procedure, shortened: as §1
# [9] = target: Fuc(a1-3)[Gal(b1-4)]GlcNAc(b1-3)Gal(b1-4)[Fuc(a1-3)]GlcNAc(b1-3)Gal(b1-4)[Fuc(a1-3)]GlcNAc
# Procedure, shortened: as §1
# [10] = target: Fuc(a1-3)[Gal(b1-4)]GlcNAc(b1-3)GalNAc
# Procedure, shortened: as §1
# [11] = target: Fuc(a1-3)[Gal(b1-4)]GlcNAc(b1-6)GalNAc
# Procedure, shortened: as §1
# [12] = target: Fuc(a1-3)[Gal(b1-4)]GlcNAc(b1-6)[Gal(b1-3)GlcNAc(b1-3)]Gal(b1-4)Glc
# Procedure, shortened: as §1
# [13] = target: Fuc(a1-3)[Gal(b1-4)]GlcNAc6S
# Procedure, shortened: as §1
# [14] = target: Fuc(a1-3)[Gal3S(b1-4)]Glc
# Procedure, shortened: as §1
# [15] = target: Fuc(a1-3)[Gal3S(b1-4)]GlcNAc
# Procedure, shortened: as §1
# [16] = target: Fuc(a1-3)[Gal3S(b1-4)]GlcNAc6S
# Procedure, shortened: as §1
# [17] = target: Fuc(a1-3)[GalNAc(b1-4)]GlcNAc
# Procedure, shortened: as §1
# [18] = target: Fuc(a1-3)[GalNAc(b1-4)]GlcNAc6S
# Procedure, shortened: as §1
# Fuc(a1-4)GlcNAc = target: Fuc(a1-4)GlcNAc
# Procedure, shortened: as §1
# Fuc(b1-3)GlcNAc = target: Fuc(b1-3)GlcNAc
# Procedure, shortened: as §1
# Gal(a1-2)Gal = target: Gal(a1-2)Gal
# Procedure, shortened: as §1
# Gal(a1-3)Gal = target: Gal(a1-3)Gal
# Procedure, shortened: as §1
# Gal(a1-3)Gal(b1-3)GlcNAc = target: Gal(a1-3)Gal(b1-3)GlcNAc
# Procedure, shortened: as §1
# [19] = target: Gal(a1-3)Gal(b1-3)GlcNAc(b1-2)Man
# Procedure, shortened: as §1
# [20] = target: Gal(a1-3)Gal(b1-3)GlcNAc(b1-2)Man(a1-3)[Gal(a1-3)Gal(b1-3)GlcNAc(b1-2)Man(a1-6)]Man(b1-4)GlcNAc(b1-4)GlcNAc
# Procedure, shortened: as §1
# [21] = target: Gal(a1-3)Gal(b1-3)GlcNAc(b1-3)GalNAc
# Procedure, shortened: as §1
# [22] = target: Gal(a1-3)Gal(b1-3)GlcNAc(b1-6)GalNAc
# Procedure, shortened: as §1
# [23] = target: Gal(a1-3)Gal(b1-3)[Fuc(a1-4)]GlcNAc(b1-2)Man(a1-3)[Gal(a1-3)Gal(b1-3)[Fuc(a1-4)]GlcNAc(b1-2)Man(a1-6)]Man(b1-4)GlcNAc(b1-4)GlcNAc
# Procedure, shortened: as §1
# Gal(a1-3)Gal(b1-4)Glc = target: Gal(a1-3)Gal(b1-4)Glc
# Procedure, shortened: as §1
# Gal(a1-3)Gal(b1-4)GlcNAc = target: Gal(a1-3)Gal(b1-4)GlcNAc
# Procedure, shortened: as §1
# [24] = target: Gal(a1-3)Gal(b1-4)GlcNAc(b1-2)Man
# Procedure, shortened: as §1
# [25] = target: Gal(a1-3)Gal(b1-4)GlcNAc(b1-2)Man(a1-3)[Gal(a1-3)Gal(b1-4)GlcNAc(b1-2)Man(a1-6)]Man(b1-4)GlcNAc(b1-4)GlcNAc
# Procedure, shortened: as §1
# [26] = target: Gal(a1-3)Gal(b1-4)GlcNAc(b1-3)GalNAc
# Procedure, shortened: as §1
# [27] = target: Gal(a1-3)Gal(b1-4)GlcNAc(b1-6)GalNAc
# Procedure, shortened: as §1
# [28] = target: Gal(a1-3)Gal(b1-4)[Fuc(a1-3)]GlcNAc
# Procedure, shortened: as §1
# [29] = target: Gal(a1-3)Gal(b1-4)[Fuc(a1-3)]GlcNAc(b1-2)Man(a1-3)[Gal(a1-3)Gal(b1-4)[Fuc(a1-3)]GlcNAc(b1-2)Man(a1-6)]Man(b1-4)GlcNAc(b1-4)GlcNAc
# Procedure, shortened: as §1
binder,measurement,setting,value
"PVL (Psathyrella velutina), Q309D1_9AGAR (protein) MSVVVISQALPVPTRIPGVADLVGFGNGGVYIIRNSLLIQVVKVINNFGYDAGGWRVEKHVRLLADTTGDNQPDVVGFGENGVWISTNNGNNTFVDPPKMVLANFAYAAGGWRVEKHIRFMADLRKTGRADIVGFGDGGIYISRNNGGGQFAPAQLALNNFGYAQGWRLDRHLRFLADVTGDGLLDVVGFGENQVYIARNSGNGTFQPAQAVVNNFCIGAGGWTISAHPRVVADLTGDRKADILGFGVAGVYTSLNNGNGTFGAVNLVLKDFGVNSGWRVEKHVRCVSSLTNKKVGDIIGFGDAGVYVALNNGNGTFGPVKRVIDNFGYNQGWRVDKHPRFVVDLTGDGCADIVGFGENSVWACMNKGDGTFGPIMKLIDDMTVSKGWTLQKTVRYAANLYL",glycan array binding signal (z-score),[1],-0.353
same,glycan array binding signal (z-score),Fuc(a1-3)GlcNAc,-0.371
same,glycan array binding signal (z-score),[2],-0.352
same,glycan array binding signal (z-score),[3],-0.361
same,glycan array binding signal (z-score),[4],-0.412
same,glycan array binding signal (z-score),[5],-0.368
same,glycan array binding signal (z-score),[6],-0.366
same,glycan array binding signal (z-score),[7],-0.366
same,glycan array binding signal (z-score),[8],-0.256
same,glycan array binding signal (z-score),[9],-0.357
same,glycan array binding signal (z-score),[10],-0.362
same,glycan array binding signal (z-score),[11],-0.365
same,glycan array binding signal (z-score),[12],-0.344
same,glycan array binding signal (z-score),[13],-0.357
same,glycan array binding signal (z-score),[14],-0.398
same,glycan array binding signal (z-score),[15],-0.357
same,glycan array binding signal (z-score),[16],-0.364
same,glycan array binding signal (z-score),[17],-0.386
same,glycan array binding signal (z-score),[18],-0.367
same,glycan array binding signal (z-score),Fuc(a1-4)GlcNAc,-0.38
same,glycan array binding signal (z-score),Fuc(b1-3)GlcNAc,-0.418
same,glycan array binding signal (z-score),Gal(a1-2)Gal,-0.387
same,glycan array binding signal (z-score),Gal(a1-3)Gal,-0.351
same,glycan array binding signal (z-score),Gal(a1-3)Gal(b1-3)GlcNAc,-0.383
same,glycan array binding signal (z-score),[19],-0.368
same,glycan array binding signal (z-score),[20],-0.356
same,glycan array binding signal (z-score),[21],-0.365
same,glycan array binding signal (z-score),[22],-0.439
same,glycan array binding signal (z-score),[23],-0.353
same,glycan array binding signal (z-score),Gal(a1-3)Gal(b1-4)Glc,-0.359
same,glycan array binding signal (z-score),Gal(a1-3)Gal(b1-4)GlcNAc,-0.38
same,glycan array binding signal (z-score),[24],-0.365
same,glycan array binding signal (z-score),[25],-0.351
same,glycan array binding signal (z-score),[26],-0.363
same,glycan array binding signal (z-score),[27],-0.418
same,glycan array binding signal (z-score),[28],-0.368
same,glycan array binding signal (z-score),[29],-0.346
